Results published in the RNAGym collection of RNA variant scans (doi:10.1073/pnas.2313332121).
Variants at the background level are over-represented here.

B1: TPR 5TU (parent)
chain: GGAUCUUCUCGAUCUAACAAAAAAGACAAAUCUGCCACAAAGCUUGAGAGCAUCUUCGGAUGCAGAGGCGGCAGCCUUCGGUGGCGCGAUAGCGCCAACGUUCUCAACUAUGACACGCAAAACGCGUGCUCCGUUGAAUGGAGUUUAUCAUG

Variants of: B1
Experiment: polymerase ribozyme fitness, log enrichment relative to wild type (log ratio); higher = more active; in vitro selection for triplet polymerase activity
In short: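 Each subunit of a heterodimeric triplet polymerase ribozyme was mutagenized into a library by PCR, transcribed, and subjected to one round of in vitro selection, run in triplicate. Libraries were annealed with a biotinylated primer, the partner subunit and triplets, incubated frozen at −7 °C, and extended constructs were gel-excised, captured on streptavidin beads and recovered by RT-PCR. Input and output libraries were sequenced on Illumina, keeping genotypes with ≥10 input reads and ≥1 read per output. Fitness is log base 2 of genotype enrichment divided by wild-type enrichment, from inverse-variance-weighted replicate averages.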

Polymerase ribozyme fitness (log ratio), ≤ -4.2:
GGAUCUUCUCGAUCUAACAAAAAAGACAAAUCUGCCACAAAGCUUGAGAGCAUCUUCGGAUCCAGAAGCGGCAGCCUUCGGUGGCGCGAUAGCGCCAACGUUCUCAACUAUGACACGCAAAACGCGUGCUCCGUUGAAUGGAGUUUAUCAUG [G62C G67A]
GGAUCUUCUCGAUCUAACAAAAAAGACAAAUCUGCCACAAAGCUUGAGAGCAUCUUCGGAUCCAGAGGCGGCAGCCUUCGGGGGCUCGAUAGCGCCAACGUUCUCAAAUAUGACACGCAAAACGCGUGCUCCGUUGAAUGGAGUUUAUCAUG [G62C U82G G86U C108A]
GGAUCUUCUCGAUCUAACAAAAAAGACAAAUCUGCCACAAAGCUUGAGAGCAUCUUCGGAUGUAGAGGCGGCAACCUUCGGUGGCGCGAUAGCGCCAACGUUCUCAUCUAUGACACGCAAAACGCGCGCUCCGUUGAAUGGAGUUUAUCAUG [C63U G74A A107U U127C]
GGAUCUUCUCGAUCUAACAAAAAAGACAAAUCUGCCACAAAGCUUGAGAGCAUCUUCGGAUCCAGAGGCGGCAGCCUUCGGUGGCGCGAUAGCGCCAACUUUCUCAACUAUGACACGCAAAACGCGUGCUCCGUUGAAUGGAGUUUAUCAUG [G62C G100U]
GGAUCUUCUCGAUCUAACAAAAAAGACAAAUCUGCCACAAAGCUUGAGAGCAUCUUCGGAUACGGAGGCGGCGGCCUUCGGUGGCGGGAUAGCGCUAACGUUCUCAACUAUGACACGCAAAACGCGUGCUCAGUUGAAUGGAGUUUAUCAUG [G62A A64G A73G C87G C96U C132A]
GGAUCUUCUCGAUCUAACAAAAAAGACAAAUCUGCCACAAAGCUUGAGAGCAUCUUCGGAUGAAGAGGCGGCAGCCUUCGGUGGCGCGAUAGCGCCAACAUUCUCAACUAUGACACGCAAAACGCGUGCUCCGUUGAAUGGAGUUUAUCAUG [C63A G100A]
GGAUCUUCUCGAUCUAACAAAAAAGACAAAUCUGCCACAAAGCUUGAGAGCAUCUUCGGAUUCAGAGGCGGCAGCCUUCGGUGGCGCGAUAGCGCCAACUUUGUCAAGUAUGACACGCAAAACGCGUGCUCCGUUGAAUGGAGUUUAUCAUG [G62U G100U C103G C108G]
GGAUCUUCUCGAUCUAACAAAAAAGACAAAUCUGCCACAAAGCUUGAGAGCAUCUUCGGAUUCAGAGGCGGCAGCCUUCGGUGUCGCGAUAGUGCCAACGUUCUCAUCUAUGACACGCAAAACGCGUGCUCCGUUGAAUGGAGUUUAUCAUG [G62U G84U C93U A107U]
GGAUCUUCUCGAUCUAACAAAAAAGACAAAUCUGCCACAAAGCUUGAGAGCAUCUUCGGAUCUAGAGCCGGCAGCCUUCGGUGGCGCGAUAGCGCCAACGUUCUCAACUAUGACACGCAAAACGCGUGCUCCGUUGAAAGGAGUUUAUCAUG [G62C C63U G68C U139A]
GGAUCUUCUCGAUCUAACAAAAAAGACAAAUCUGCCACAAAGCUUGAGAGCAUCUUCGGAUGAAGAGGCGGCAGACUUCGGUGGCGCGAUAACGCCAACGUUCUCAACUAUGACACGCAAAACGCGUGCUCCGUUGAAUGGAGUUUAUCAUG [C63A C75A G92A]
GGAUCUUCUCGAUCUAACAAAAAAGACAAAUCUGCCACAAAGCUUGAGAGCAUCUUCGGAGGCAGAGGCGGCACCCUUCGGUGGCGCGAUAGCGCCAACGUUCUCAACUAUGACACGCAAAACGCGUGCUCCGUUGAAUGGAGUUUAUCAUG [U61G G74C]
GGAUCUUCUCGAUCUAACAAAAAAGACAAAUCUGCCACAAAGCUUGAGAGCAUCUUCGGAUGUAGAGGGGGCAGCCUUCGGUGGGGCGAUAGCGCCAGCGUUCGCAACUAUGACACGCAAAACGCGUGCUCCGUUCAAUGGAGUUUAUCAUG [C63U C69G C85G A98G U104G G136C]
GGAUCUUCUCGAUCUAACAAAAAAGACAAAUCUGCCACAAAGCUUGAGAGCAUCUUCGGAUACAGAGGCGGCAGCCUUCGGUGGCGCGAUAGCGCCAACGUUCUCAAAUAUGACACGCAAAACGAGUGCUCCGUUGAAUCGAGUUUAUCAUG [G62A C108A C125A G140C]
GGAUCUUCUCGAUCUAACAAAAAAGACAAAUCUGCCACAAAGCUUGAGAGCAUCUUCGGAUCCAGGGGCGGCAGCCUUCGGUGGCGAGAUAGCGUCAACGUUCUCAACUAUGACACGCAAAACGCGUGCUCCGUUGAAUGGAGUUAAUCAUG [G62C A66G C87A C95U U146A]
GGAUCUUCUCGAUCUAACAAAAAAGACAAAUCUGCCACAAAGCUUGAGAGCAUCUUCGGAUGUAAAGGCGGCAGCCUUCGGUGGCGAGAUAGCGCCAACGUUCUCAACUAUGACACGCAAAACGCGUGCUCCGCUGAAUGGAGUUUAUCAUG [C63U G65A C87A U134C]
GGAUCUUCUCGAUCUAACAAAAAAGACAAAUCUGCCACAAAGCUUGAGAGCAUCUUCGGAUGAAGAGGCGGCAGCCUUCGGUGGCGCGAUAGCGCCAACGUUGUAAACUAUGACACGCAAAACGCGUGCUCCGUUGAAUGGAGUUUAUCAUG [C63A C103G C105A]
GGAUCUUCUCGAUCUAACAAAAAAGACAAAUCUGCCACAAAGCUUGAGAGCAUCUUCGGAUCCAGAGGCGGCAGCCUUCGGUGGAGCGAGAGCGCCAACGUUCUCAACUAUGACACGCAAAACGCGUGCUCCGUUGAAUGUCGUUUAUCAUG [G62C C85A U90G G141U A142C]
GGAUCUUCUCGAUCUAACAAAAAAGACAAAUCUGCCACAAAGCUUGAGAGCAUCUUCGGAGGCAGAGGCGACAGCCUUCGGUGGCGCGAUAGCGCGAACGUUCUCAACUAUGACACGCAAAACGCGUGCUCCGUUGAAUGGAGCUUAUCAUG [U61G G71A C96G U144C]
GGAUCUUCUCGAUCUAACAAAAAAGACAAAUCUGCCACAAAGCUUGAGAGCAUCUUCGGAUGAAGAGGCGGCAGCCUUCGGUGGCGCGAUGGCGCCAACGUACUCAACUAUGACACGCAAAACGCGUGCUCCGUUGAAUGGAGUUUAUCAUG [C63A A91G U102A]
GGAUCUUCUCGAUCUAACAAAAAAGACAAAUCUGCCACAAAGCUUGAGAGCAUCUUCGGAUCCAGAGGCGGCAGCCUUCGGUGGCGCGAUAGCGCCAACGUUCUCAACUAUGACACGCAAAACGCGUGCACCGUUGAAUGGAGUUUAUCAUG [G62C U130A]
GGAUCUUCUCGAUCUAACAAAAAAGACAAAUCUGCCACAAAGCUUGAGAGCAUCUUCGGAUUCAGAGGCGACAGCCCUCGGUGUCGCGAUAGCGCCAACGUUCUCAACUUUGACACGCAAAACGCGUGCUCCGUUGAAUGGAGUUUAUAAUG [G62U G71A U77C G84U A110U C149A]
GGAUCUUCUCGAUCUAACAAAAAAGACAAAUCUGCCACAAAGCUUGAGAGCAUCUUCGGAUCCAGAGGCGGCAGCCUUCGGUGGCGCGAUAGGGCCAACGUUCUCAACUAUGACACGCAAAACGCGUGCUCCGUUGAAUGGAGUUUAUCUUG [G62C C93G A150U]
GGAUCUUCUCGAUCUAACAAAAAAGACAAAUCUGCCACAAAGCUUGAGAGCAUCUUCGGAUGUAGAGGCCGCAGCCUUCGGUGGCGCGAUAGCGCCAACGUUCUCAACUAUGACACGCAAAACGCGUGCUCCGUUGAAUGGAGCUUAUCAUG [C63U G70C U144C]
GGAUCUUCUCGAUCUAACAAAAAAGACAAAUCUGCCACAAAGCUUGAGAGCAUCUUCGGAGGCAGAGGCGGCAGCCUUCGGUGGCGCGAAAGCGCCAACGUUGUCAACUAUGACACGAAUAACGCGUGCUCCGUUGAAUGGAGUUUAUCAUG [U61G U90A C103G C118A A120U]
GGAUCUUCUCGAUCUAACAAAAAAGACAAAUCUGCCACAAAGCUUGAGAGCAUCUUCGGAUGUAGAGGCGGCAGCCCUCGGUGGCGCGAUAGCGCCAACGUUCUCAACUAUGACACGCAAAACGCGUUCUCCGUUGAGUGGAGUUCAUCAUG [C63U U77C G128U A138G U146C]
GGAUCUUCUCGAUCUAACAAAAAAGACAAAUCUGCCACAAAGCUUGAGAGCAUCUUCGGAUGUAGAGGCGGCAGCCUUCGGUGGCGCGAUAGCGCUAACGUUCUAAACUGUGACACGCAAAACGCGUGCUCCGUUGAAUGGAGUUUAUCAUG [C63U C96U C105A A110G]
GGAUCUUCUCGAUCUAACAAAAAAGACAAAUCUGCCACAAAGCUUGAGAGCAUCUUCGGAUACAGAGGCGGGAGCCUUCGGUGGCGCGAUAGCGCCAACGUUCUCAACUAUGACACGCAAACAGCGUGCUCCGUUGAAUGGAGUUUAUCAUG [G62A C72G A122C C123A]
GGAUCUUCUCGAUCUAACAAAAAAGACAAAUCUGCCACAAAGCUUGAGAGCAUCUUCGGAUGUAGAGGCGGCAGCCUGCGGUGGCGCCAUAGCGCCAACGUUCUCAACUAUGACACGCAAAACGGGUGCUCCGUUGAAUGGAGUUUAUCAUG [C63U U78G G88C C125G]
GGAUCUUCUCGAUCUAACAAAAAAGACAAAUCUGCCACAAAGCUUGAGAGCAUCUUCGGAUACAGACGCGGCAGCCUUCGGUGGCGCGAUAGCAACAACGUUCUCAACUAUGACACGCAACACGCGUGCUCCGUUGAAUGGAGUUUAUGAUG [G62A G67C G94A C95A A121C C149G]
GGAUCUUCUCGAUCUAACAAAAAAGACAAAUCUGCCACAAAGCUUGAGAGCAUCUUCGGAUGAACUGGCGGCAGCCUUCUGUGGCGUGAUAGCCCCAACGUUCUCAACUGUGACACGCAAAACGGGUGCUCCGUUGGAUGCAGUUUAUCAUG [C63A G65C A66U G80U C87U G94C A110G C125G A137G G141C]
GGAUCUUCUCGAUCUAACAAAAAAGACAAAUCUGCCACAAAGCUUGAGAGCAUCUUCGGAUACAGAGGCGGCUGCCUUCGGUGGCGCGAUAGCGCCAACGUUCUCAAGUAUGACACGCAAAACGCGUGCUCCGUUGAAGGGAGUUUAUCAUG [G62A A73U C108G U139G]
GGAUCUUCUCGAUCUAACAAAAAAGACAAAUCUGCCACAAAGCUUGAGAGCAUCUUCGGAUUCAGGGGCGGCAGCCUUCGGUGGCGCGAUAGCGCCAACGUUCUCAACUAUGACACGCAAAACGCGUGCUCCGUUGAAUGGAGUUUAUCAUG [G62U A66G]
GGAUCUUCUCGAUCUAACAAAAAAGACAAAUCUGCCACAAAGCUUGAGAGCAUCUUCGGAUGAAGAGGUGGCAGCCUUCGGUGUCGCGAUAGCGCCAACGUUCUCAACUAUGACACGCAAAACGCGUGCUCCGUUGAAUGGAGUUUAUCGUG [C63A C69U G84U A150G]
GGAUCUUCUCGAUCUAACAAAAAAGACAAAUCUGCCACAAAGCUUGAGAGCAUCUUCGGAUGAAGGGGCGGCAGCCUUCGGUGGCGCGAUAGUGCCAACGUUCUCAACUAUGACACGCAAAACGCGUGCUCCGUUGAAUGGAGUUUAUCAUG [C63A A66G C93U]
GGAUCUUCUCGAUCUAACAAAAAAGACAAAUCUGCCACAAAGCUUGAGAGCAUCUUCGGAUGAAUAGGCGGCAGCCUUCGGUGGCGCGAUACCGCCAACGUUCUCAACUAUGACACGCAAAACGCGUGCUCCGUUGAAUGGAGUUUAUCAUG [C63A G65U G92C]
GGAUCUUCUCGAUCUAACAAAAAAGACAAAUCUGCCACAAAGCUUGAGAGCAUCUUCGGAUACAGAGGCGGCAGCUUGCGGUGGCGCGAUAGCGCAAACGUUCUCAACUAUGACACGCAAAACGCGUGCUCCGUUGAAUGGAGUUCAUCAUU [G62A C76U U78G C96A U146C G152U]
GGAUCUUCUCGAUCUAACAAAAAAGACAAAUCUGCCACAAAGCUUGAGAGCAUCUUCGGAGGCAGAGACGGCAGCCUUCGGUGGCGCGAUAGCGACAACGUUCUCAACUAUGACACGCAAAACGCGUGCUCCGUUGACUGGAGUUUAUCAUG [U61G G68A C95A A138C]
GGAUCUUCUCGAUCUAACAAAAAAGACAAAUCUGCCACAAAGCUUGAGAGCAUCUUCGGAUACGGAGGCGGCAGCCUUCGGUGGCGCGAUAGCGCCAACGUUCUCAACUAUGACACGCAAAACGCGUGCUCCGUUGAAUGGAGUUUAUCAUG [G62A A64G]
